About 540 (0.36%) of roughly 150,000 compounds showed an effect of 50% or more. The list shows a part of the results.
Tested on: Plasmodium falciparum
Assay: Primary screen in NF54 nanoGlo assay, in single point, at 2uM, 72h; a lower Z score goes with more inhibition
Assay type: functional, Erythrocyte
Conditions: timepoint 72 hour

Row | Structure (SMILES) | % Inhibition | Z score
1 | Cc1n[nH]c(-c2cc(S(=O)(=O)N[C@H]3CCCc4ccccc43)c(C)s2)c1C | 13% | -2.41
2 | C[C@H]1CN(C(=O)c2ccc(-c3nc(C4CC4)no3)cc2)CCN1 | -12% | 2.38
3 | CC[C@](O)(C(=O)N1CC(NC(=O)COC)C1)c1cccc(Cl)c1 | -11% | 1.58
4 | CCc1nc(CC(=O)N2CCN(c3ccccn3)CC2)cs1 | -10% | 1.29
5 | COC(=O)Nc1nc(-c2ccccc2)c(-c2nccc(OCC(F)(F)F)c2C)s1 | 30% | -3.82
6 | CCOc1ccc(-c2ncnc(N3CCN(C)CC3)c2N)cc1 | -10% | 1.27
7 | Cc1nn(C)c(C)c1CCc1nc([C@H]2CCOC2)no1 | -6% | 1.12
8 | C[C@H](NCCCC(=O)N1CCc2ccccc2C1)c1cnccn1 | -5% | 0.55
9 | Cn1cc(-c2noc(C3CC4CCC3C4)n2)cn1 (configuration not stated) | -2% | 0.2
10 | COCCCNC(=O)c1ccc(CN2C(=O)CCn3nccc32)cc1 | 13% | -1.46
11 | O=C(CC1CCN(C(=O)c2cc3ccccc3[nH]2)CC1)NCc1cccc(Cl)c1 | 12% | -1.43
12 | CCCN1CCN(CCCNC(=O)[C@H]2CCCN(c3nc4ncccc4n4cccc34)C2)CC1 | 6% | -0.68
13 | COc1ccccc1/C=C/CN1CCN(C(=O)N(C)C)[C@H]2CS(=O)(=O)C[C@H]21 | 1% | -0.08
14 | Cc1cc(S(=O)(=O)Nc2cnc3c(c2)COCC3)c(C)s1 | -3% | 0.47
15 | Cc1cc(C)cc(NC(=O)[C@H]2CC23CCN(Cc2cccc4cccnc24)CC3)c1 | 14% | -1.2
16 | COCCNc1nc2c(c(N(C)CCc3ccccn3)n1)CCNCC2 | -4% | 0.73
17 | O=C(C1CCCCC1)N1CC[C@@]2(CO)CN(Cc3ccccc3)C[C@H]2C1 | -20% | 2.37
18 | Cc1ccc(CNC(=O)c2cnc(-c3ccccc3)nc2-c2ccncc2)cc1C | -1% | 0.08
19 | O=C(c1cccc2[nH]ccc12)N1CC(Oc2ccccc2-c2nc(-c3cnccn3)no2)C1 | -14% | 1.55
20 | Cc1nsc(NC(=O)N2CCC([C@@H](O)CCc3ccccc3)CC2)n1 | 0% | 0.05
21 | CC[C@@H](CO)N(Cc1cccnc1)C(=O)c1ncccc1C(=O)c1ccccc1 | -7% | 0.92

Row | Structure (SMILES) | % Inhibition | Z score
22 | COc1ccc(C(=O)N2C[C@H]3CC(=O)NCCN(C)C(=O)c4cccn(c4=O)Cc4cn(nn4)[C@H]3C2)cc1 | -9% | 1.62
23 | CCn1ncnc1-c1ccc(C(=O)N[C@@H]2COC(C)(C)C2)cc1 | 2% | -0.25
24 | CCc1cc(C(=O)Nc2cc(Cl)ccc2OC)nc2ccnn12 | -6% | 0.91
25 | O=C(Nc1nc(-c2cccc3ccccc23)cs1)c1ccc[n+]([O-])c1 | -3% | 0.38
26 | OCC1CCN(c2ccc(-c3nc(-c4cccc(C(F)(F)F)c4)no3)cn2)CC1 | -7% | 0.97
27 | CC(C)CC(C)OCCC(=O)NC1CCN2CCCCC12 (configuration not stated) | 31% | -3.5
28 | Cc1nc(N2CCOCC2)[nH]c(=O)c1CCC(=O)N1CCC[C@H]1C(=O)Nc1nccs1 | 4% | -0.41
29 | Cc1nnc(N2CCC(C(=O)N[C@@H](C)c3ccccc3)CC2)c2nn(-c3ccccc3)c(C)c12 | 11% | -1.33
30 | CN(CC(F)F)C(=O)NCc1cc(F)ccc1Br | -9% | 1.21
31 | Cn1c(NC(=O)c2ccc(OCc3ccccc3)nc2)nc2c(C#N)cccc21 | -11% | 1.9
32 | COc1ccccc1CN1C(=O)N[C@@H](CC(=O)N2CCc3cc(OC)c(OC)cc3C2)C1=O | 5% | -0.96
33 | CN(c1ccc2c(c1)OCO2)S(=O)(=O)c1ccsc1-c1nc(-c2cccc(Cl)c2)no1 | -10% | 1.41
34 | CCN(C(=O)c1csnc1C)[C@@H](C)Cc1ccc(OC)cc1 | 3% | -0.34
35 | C[C@H]1CCc2nn3ccn(CC(=O)Nc4ccccc4)c(=O)c3c2C1 | -10% | 1.59
36 | CC(=O)N[C@H]1CO[C@H]2[C@@H]1OC[C@@H]2n1nnnc1-c1ccc(N(C)C)cc1 | -5% | 0.7
37 | CC[C@@H](CO)NC(=O)C1CC12CCc1cc(Br)ccc12 (some centres not stated) | -13% | 2.03
38 | Cc1nc(N2CCC[C@H](CNC(=O)c3cncn3C)C2)sc1C | -6% | 0.66
39 | Cn1ccc2cc([C@@H](O)CNC(=O)CC(C)(C)C)ccc21 | -12% | 1.48
40 | Cc1oc(-c2cc(C(F)(F)F)[nH]n2)cc1S(=O)(=O)N1CCN(C)C(=O)[C@@H]1C | -10% | 1.35
41 | CCOC(=O)C1CCN(C(=O)c2coc(CN(Cc3ccccc3)Cc3ccc(C(F)(F)F)cc3)n2)CC1 | -25% | 2.24
42 | O=C1C[C@H](C(=O)O)C2(CCN(CC3CC3)CC2)N1 | 15% | -1.95

Row | Structure (SMILES) | % Inhibition | Z score
43 | Cc1cc2c(c(-c3ccc(C(=O)NCC(C)C)o3)c1)O[C@@H](CN)C2 | 3% | -0.51
44 | CCN1CC[C@H](c2nc(-c3ccncc3)nn2C(C)C)C1 | -10% | 1.8
45 | Cn1cc(-c2nnc(O)c3ccccc23)cn1 | -16% | 2.31
46 | Cc1nn(-c2ccc(F)cc2)c2c1[C@@H](c1ccc(OCC(N)=O)cc1)CC(=O)N2 | -4% | 0.53
47 | CN(Cc1ccccc1F)C(=O)c1cc(S(=O)(=O)N2CCOCC2)ccc1N1CCCC1 | 3% | -0.52
48 | COCCN(CC1CN(CC(C)O)CCO1)C(=O)c1ccccc1 (configuration not stated) | -10% | 1.49
49 | Cc1nc[nH]c1CN1C[C@H]2CC[C@@H](C1)N(C(=O)c1scnc1C)C2 | -1% | 0.13
50 | c1ccc(-c2noc(CCCN[C@H]3CCc4ncnn4C3)n2)cc1 | -2% | 0.32
51 | COc1ccc(CN2CCCN(c3ccc(NC(=O)NCc4ccccc4)cc3)C2=O)cc1 | -1% | 0.21
52 | COc1ccc(S(=O)(=O)N(C)c2ccc3sc(C(=O)N4CCCCCC4)cc3c2)cc1 | -15% | 2.15
53 | Cn1ccc(CNc2ccccc2C(F)(F)F)n1 | 30% | -3.39
54 | CC[C@H]1CN(C(=O)c2cc(O)nc3ccccc23)CCO1 | -3% | 0.57
55 | COc1ccc(CN(Cc2ccco2)C(=O)Nc2cccc(F)c2)cc1OS(=O)(=O)c1cccc(C(F)(F)F)c1 | 2% | -0.33
56 | Cc1ccc2c(CNCCCc3ccccc3)c(C(=O)O)[nH]c2c1 | -11% | 1.06
57 | CCNS(=O)(=O)c1cnc(C(F)(F)F)c(C(=O)OCC)c1 | 2% | -0.19
58 | Cc1cc2c(C)nc(N3CCC(NC[C@H](C)Oc4cccnc4)CC3)nc2cc1F | 2% | -0.23
59 | Cc1noc(-c2cccc(=O)n2CC(=O)Nc2ccc(C)c(C)c2)n1 | -12% | 1.95
60 | Cc1c(NC(=O)CN2CCN(c3ccccc3F)CC2)c(=O)n(-c2ccccc2)n1C | 7% | -1.34
61 | Cc1nn(C)c(C)c1CN(CCC(=O)Nc1nccs1)C(C)C | -4% | 0.61
62 | COCC1(NC(=O)Nc2cccc(CC(=O)OC)n2)CCC1 | -4% | 0.83
63 | NC[C@H]1Cc2cccc(-c3cc(N4CCOCC4)ncn3)c2O1 | -7% | 0.9

Row | Structure (SMILES) | % Inhibition | Z score
64 | CN(C)c1nc(C2CC(N)C2)cc(N2CCC(F)(F)CC2)n1 (configuration not stated) | -10% | 0.97
65 | Cc1cc(NC(=O)[C@H](C)c2ccccc2)cnc1C(F)(F)F | 6% | -0.8
66 | COc1ccc(N2CCN(CC(=O)NCc3ccncc3)C2=O)cc1 | -1% | 0.15
67 | COc1ccc(N2CCN(C(=O)CCN3C(=O)c4ccccc4C3=O)CC2)cc1 | -8% | 0.91
68 | C[C@@H](CCCc1ccccc1)C(=O)Nc1nccn(C)c1=O | 3% | -0.38
69 | CCc1ccc(CN(C)CCc2c[nH]c(=O)n(C)c2=O)nc1 | 5% | -0.7
70 | O=C(c1cccc(-c2ncccn2)c1)N1CCN(Cc2nnc[nH]2)CC1 | -2% | 0.33
71 | CCc1nnc(CN(CC)Cc2c[nH]c(C)n2)o1 | -2% | 0.31
72 | O=C(N[C@@H](N1CCN(c2ccccc2)CC1)C(Cl)(Cl)Cl)c1cccs1 | -4% | 0.49
73 | CC(C)n1nccc1-c1ccc(N2CCOCC2)cc1 | -9% | 1.81
74 | CS(=O)(=O)N1C[C@H]2CCN(Cc3ccc(F)c(F)c3)C[C@@]2(CO)C1 | -16% | 1.92
75 | c1ccc(-c2nc(CNc3nnn[nH]3)cs2)nc1 | -2% | 0.25
76 | COc1ccc(Cn2cnn(C(C)(C)C)c2=O)cn1 | -3% | 0.37
77 | COc1ccc2c(c1)[C@@H](NC(=O)Cc1c(C)n[nH]c1C)CC(C)(C)O2 | 6% | -0.78
78 | NC(=O)c1cc(CNC(=O)c2occ3c2CCOC3)n2c1CCCC2 | -6% | 0.7
79 | Cc1ccc(S(N)(=O)=O)c(C(=O)N2CCC[C@H](C3CCC3)CC2)c1 | -10% | 1.46
80 | COc1cccc(-n2nc(C(=O)N3CCN(C(C)=O)CC3)c(=O)n(Cc3ccccc3Cl)c2=O)c1 | -12% | 1.86
81 | O=C(NCc1ccccn1)c1nn[nH]c1Nc1ccccc1F | 1% | -0.11

From ChEMBL document CHEMBL4888484, “Replenishing the malaria drug discovery pipeline: Screening and hit evaluation of the MMV Hit Generation Library 1 (HGL1) against asexual blood stage Plasmodium falciparum ,using a nano luciferase reporter read-out” (2022)
